According to US12594350B2, “CD8-specific capture agents, compositions, and methods of using and making” (Regeneron Pharmaceuticals, Inc., priority 2016, dated 2026):

Key:
His-tagged CD8 epitopes = test: Assay to determine orientation of macrocycle binding to CD8 Epitopes1-2; set-up: species or system human; settings: polyglycine-substituted His-tagged CD8 epitopes at 2 μM
Method: Assay to determine orientation of macrocycle binding to CD8 Epitopes1-2. […] Wash Buffer without epitope was added as a control. […] Data are shown after subtraction of the no-epitope background.
For this experiment, the CD8 Epitope1 was re-synthesized with a His6 assay handle and polyglycine substitution of the sequences either N-terminal or C-terminal to the location of the click handle (R10) (FIG. 12A). The CD8 Epitope2 was similarly re-synthesized with a His6 assay handle and polyglycine substitution (N-terminal or C-terminal to K58) (FIG. 12B). Point ELISAs for the His-tagged CD8 epitopes were conducted against the immobilized macrocyclic peptide ligands. For PEG3-biotin-modified Cy(wplrf) (SEQ ID NO: 13), Cy(AKYRG) (SEQ ID NO: 8), Cy(rwfnv) (SEQ ID NO: 14), and Cy(ffrly) (SEQ ID NO: 17), maximum ELISA signals were obtained for binding to CD8 Epitope1N (dark bars, FIG. 12C) indicating preferential binding to the N-terminal portion of CD8 Epitope1. […] For PEG3-biotin-modified Cy(HGRGH) (SEQ ID NO: 21) and Cy(wsvnv) (SEQ ID NO: 34), maximum ELISA signals were obtained for binding to CD8 Epitope2C (light grey bars, FIG. 12D) indicating preferential binding to the C-terminal portion of CD8 Epitope2.

[1] = mouse, in vivo, iv
[2] = target: His-tagged CD8α human recombinant protein (Homo sapiens, UniProt P01732); test: CD8 ELISA (affinity assay) of biligands to determine cooperativity; format: binding; set-up: purchased Origene TP760215
Sequence of His-tagged CD8α human recombinant protein (P01732 22-235): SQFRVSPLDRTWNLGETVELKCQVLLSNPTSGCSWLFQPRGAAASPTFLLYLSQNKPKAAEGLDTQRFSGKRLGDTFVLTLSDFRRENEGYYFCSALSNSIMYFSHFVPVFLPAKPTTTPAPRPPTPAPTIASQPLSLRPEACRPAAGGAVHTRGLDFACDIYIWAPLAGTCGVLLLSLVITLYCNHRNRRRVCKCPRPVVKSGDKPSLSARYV
Method: CD8 ELISA (Affinity assay). […] The plate was then blocked with 2 μM Biotin for 15 min.
This predicts that an optimized linker to covalently join two PCC macrocycles will have a length near 28.2 Å. In FIG. 17 that prediction is validated by testing polyethylene glycol (PEG) linkers of varying lengths. […] This represents a >30-fold improvement in affinity relative to the individual PCC macrocyclic ligands. Shorter or longer linkers yield biligand affinities that, while improved over either of the PCC macrocycles, are about ˜10-fold below that of the optimal linker.

Compound: [^18F]FB-labeled Cy(AKYRG): macrocycle anchor Cy(AKYRG), aminooxy-derivatized and labeled with 4-[^18F]fluorobenzaldehyde (oxime) (triazole (positions not given here); not fully specified (N-terminus, C-terminus, bridges); also: exact cyclisation residues not given here)
- biodistribution and clearance route by PET (in words) [1]: kidney clearance to the bladder (on the order of one hour) with little liver activity
- location of the peptide by 2 hours post-injection [1]: mostly in the bladder

Compound: N=C(N)NCCC[C@@H]1NC(=O)CNC(=O)[C@H](Cc2c[nH]cn2)NC(=O)[C@@H](NC(=O)COCCOCCOCCNC(=O)CCCC[C@H]2SC[C@H]3NC(=O)N[C@H]32)Cc2cn(nn2)CCCC[C@@H](C(N)=O)NC(=O)[C@H](Cc2c[nH]cn2)NC(=O)CNC1=O [biotin-PEG3-Cy(HGRGH)] ({Biotinyl(3aR,4R,6aS)-AEEEA}-[Pra]HGRGH[Lys(N3)]-NH2; triazole 1-7)
- epitope portion giving maximum ELISA signal (preferential binding) (His-tagged CD8 epitopes): CD8 Epitope2C

Compound: CC(C)C[C@H]1NC(=O)[C@H]2CCCN2C(=O)[C@@H](Cc2c[nH]c3ccccc23)NC(=O)[C@@H](NC(=O)COCCOCCOCCOCCOCCNC(=O)[C@@H]2CCCCn3cc(nn3)C[C@H](NC(=O)COCCOCCOCCNC(=O)CCCC[C@H]3SC[C@H]4NC(=O)N[C@H]43)C(=O)N[C@@H](Cc3c[nH]cn3)C(=O)NCC(=O)N[C@@H](CCCNC(=N)N)C(=O)NCC(=O)N[C@@H](Cc3c[nH]cn3)C(=O)N2)Cc2cn(nn2)CCCC[C@@H](C(N)=O)NC(=O)[C@@H](Cc2ccccc2)NC(=O)[C@@H](CCCNC(=N)N)NC1=O [Biotin-PEG3-Cy(HGRGH)-PEG5-Cy(wplrf)] ({Biotinyl(3aR,4R,6aS)-AEEEA}-[Pra]HGRGH[Lys(N3)][NH(CH2CH2O)5CH2CO][Pra][dW][dP][dL][dR][dF][Lys(N3)]-NH2; triazole 1-7, 9-15)
- improvement in affinity relative to the individual PCC macrocyclic ligands ([2]; biligand vs its macrocycle anchors): > 30 fold
- EC50 ([2]; biotinylated biligand immobilized on NeutrAvidin plate, CD8α titrated 200 to 0 nM, read-out: EC50 against CD8): 0.2 nM

Next, values leading:

- epitope portion giving maximum ELISA signal (preferential binding) (His-tagged CD8 epitopes): CD8 Epitope2C
Compound: CC(C)[C@H]1NC(=O)[C@@H](CC(N)=O)NC(=O)[C@@H](C(C)C)NC(=O)[C@@H](CO)NC(=O)[C@@H](Cc2c[nH]c3ccccc23)NC(=O)[C@@H](NC(=O)COCCOCCOCCNC(=O)CCCC[C@H]2SC[C@H]3NC(=O)N[C@H]32)Cc2cn(nn2)CCCC[C@@H](C(N)=O)NC1=O [biotin-PEG3-Cy(wsvnv)] ({Biotinyl(3aR,4R,6aS)-AEEEA}-[Pra][dW][dS][dV][dN][dV][Lys(N3)]-NH2; triazole 1-7)

- epitope portion giving maximum ELISA signal (preferential binding) (His-tagged CD8 epitopes): CD8 Epitope2N
Compound: CC(C)C[C@H]1NC(=O)[C@@H](CO)NC(=O)[C@@H](NC(=O)COCCOCCOCCNC(=O)CCCC[C@H]2SC[C@H]3NC(=O)N[C@H]32)Cc2cn(nn2)CCCC[C@@H](C(N)=O)NC(=O)CNC(=O)[C@@H](Cc2ccccc2)NC(=O)[C@@H](CCCNC(=N)N)NC1=O [biotin-PEG3-Cy(slrfG)] ({Biotinyl(3aR,4R,6aS)-AEEEA}-[Pra][dS][dL][dR][dF]G[Lys(N3)]-NH2; triazole 1-7)

One block for each compound: values may come before it. Numbered stars: 1 amine (or outer) side, 2 acyl side, 3 side chain; on linkers, the order of the positions; unused ones are H or OH. Bridge positions count the residues as written; N and C are the ends. Square brackets hold non-standard residues; d marks the D form. Triazole bridges read from a SMILES are 1,4-linked. Ends that are not written are not given here. Peptide text beside a SMILES is read from it. * marks the point of attachment. Biotinyl(3aR,4R,6aS) = O=C1N[C@@H]2[C@@H](CS[C@@H]2CCCCC(=O)*)N1; NH(CH2CH2O)5CH2CO = O=C(COCCOCCOCCOCCOCCN[*:1])[*:2]; Lys(N3) = [N-]=[N+]=NCCCC[C@H](N)C(=O)O; AEEEA = NCCOCCOCCOCC(=O)O; Pra = C#CC[C@H](N)C(=O)O
